Consider 19 molecules from patent publication US10358436B2, “Kinase inhibitors and method of treating cancer” (University Health Network, priority 2010, dated 2019).

Structures can show the parent of a compound that is named as a salt. Where two headings read alike, the source gives them in different places.

A word on the GI50: it is the concentration that inhibits growth by half.

Experiment in all cases: cells
In assay [1] the test system is MCF-7 luminal breast cancer cell line. To be noted: Homo sapiens, MCF7, 120 h.
In assay [2] the test system is human mammary epithelial primary cells (HMEC). To be noted: 120 h, read-out: Cell Line GI50 Range HMEC.
In assay [3] the test system is MDA-MB-468 basal breast cancer cell line. To be noted: Homo sapiens, MDA-MB-468, 120 h, read-out: Cell Line GI50 Range MDA-MB-468.
Assay [4] relates to HCC1954 basal breast cancer cell line. Particulars: Homo sapiens, HCC1954, 120 h.
Assay [5] deals with A549 lung cancer cell line. Particulars: Homo sapiens, A549, 120 h, read-out: Cell Line GI50 Range A-549.
The test system of assay [6] is SW620 colon cancer cell line. To be noted: Homo sapiens, SW-620, 120 h, read-out: Cell Line GI50 Range SW-620.
Setting [7] is: read-out: Cell Line GI50 Range MCF-7.
The mark [8] stands for this setting: read-out: Cell Line GI50 Range HCC-1954.
[9] abbreviates: read-out: Cell Line GI50 Range MCF-7, MCF-7 luminal breast cancer cell line, SRB assay, 5 days.
[10] abbreviates: read-out: Cell Line GI50 Range HCC-1954, HCC1954 basal breast cancer cell line, SRB assay, 5 days.

With `O=C1Nc2ccccc2[C@]12C[C@H]2c1ccc2c(/C=C/c3ccc(CN4CC[C@@H](F)C4)cc3)n[nH]c2c1` [Example A106, (1R,2S)-(E)-2-(3-(4-(((R)-3-fluoropyrrolidin-1-yl)methyl)styryl)-1H-indazol-6-yl)spiro[cyclopropane-1,3′-indolin]-2′-one 2,2,2-trifluoroacetate], the GI50 was over 10000 nM in assay [1] (setting [7]) and 1000 to 10000 nM in assay [2].

Consider `COc1ccc2c(c1)[C@]1(C[C@H]1c1ccc3c(-c4ccc(N5CCN(C6CCCC6)CC5)cc4)n[nH]c3c1)C(=O)N2` [Example A192, (1R,2S)-2-(3-(4-(4-cyclopentylpiperazin-1-yl)phenyl)-1H-indazol-6-yl)-5′-methoxyspiro[cyclopropane-1,3′-indolin]-2′-one 2,2,2-trifluoroacetate], for which the concentration for 50% growth inhibition (GI50) is 100 to 1000 nM in assay [1] (setting [7]); under 100 nM in assay [3]; over 10000 nM in assay [2]; 100 to 1000 nM in assay [4] (setting [8]); under 100 nM in assay [5]; under 100 nM in assay [6].

`O=C1Nc2ccccc2[C@@]12C[C@@H]2c1ccc2c(/C=C/c3cccnc3)n[nH]c2c1` [Example A30, (1S,2R)-2-(3-((E)-2-(pyridin-3-yl)vinyl)-1H-indazol-6-yl)spiro[cyclopropane-1,3′-indolin]-2′-one]: the GI50 in assay [1] (setting [9]) was in the range of 1000 to 10000 nM; in assay [2], 1000 to 10000 nM; in assay [4] (setting [10]) it was 1000 to 10000 nM; in assay [5] it was 100 to 1000 nM.

As to `CN(C)Cc1ccc(/C=C/c2n[nH]c3cc([C@@H]4C[C@@]45C(=O)Nc4ccccc45)ccc23)cc1` [Example A24, (1R,2S)-(E)-2-(3-(4-((dimethylamino)methyl)styryl)-1H-indazol-6-yl)spiro[cyclopropane-1,3′-indolin]-2′-one 2,2,2-trifluoroacetate], the GI50 in assay [2] is over 10000 nM.

`COc1ccc2c(c1)[C@]1(C[C@H]1c1ccc3c(/C=C/c4ccc(CN5CCOCC5)s4)n[nH]c3c1)C(=O)N2` [Example A105, (1R,2S)-5′-methoxy-2-(3-((E)-2-(5-(morpholinomethyl)thiophen-2-yl)vinyl)-1H-indazol-6-yl)spiro[cyclopropane-L3′-indolin]-2′-one hydrochloride]: the GI50 in assay [2] is over 10000 nM.

For `CCN1CCN(c2ccc(/C=C/c3n[nH]c4cc([C@@H]5C[C@@]56C(=O)Nc5ccc(OC)cc56)ccc34)cc2)CC1` (relative stereo) [Example A188, (1R*,2S*)-(E)-2-(3-(4-(4-ethylpiperazin-1-yl)styryl)-1H-indazol-6-yl)-5′-methoxyspiro[cyclopropane-1,3′-indolin]-2′-one 2,2,2-trifluoroacetate], the 50% growth inhibitory concentration (GI50) was under 100 nM in assay [1] (setting [7]); under 100 nM in assay [3]; 100 to 1000 nM in assay [4] (setting [8]); under 100 nM in assay [5]; under 100 nM in assay [6].

Consider `CC(C)CCN1C(=O)[C@@]2(C[C@H]2c2ccc3c(/C=C/c4ccc(CN(C)C)cc4)n[nH]c3c2)c2ccccc21` (relative stereo) [Example A176, (1R*,2S*)-(E)-2-(3-(4-((dimethylamino)methyl)styryl)-1H-indazol-6-yl)-1′-isopentylspiro[cyclopropane-1,3′-indolin]-2′-one], for which the GI50 in assay [1] (setting [9]) is 100 to 1000 nM; in assay [3], under 100 nM; in assay [4] (setting [10]), 100 to 1000 nM; in assay [5] it was under 100 nM; in assay [6] it was under 100 nM.

In the case of `COc1ccc2c(c1)[C@]1(C[C@H]1c1ccc3c(-c4ccc(C5CCN(C)CC5)cc4)n[nH]c3c1)C(=O)N2` [Example A123, (1R,2S)-5′-methoxy-2-(3-(4-(1-methylpiperidin-4-yl)phenyl)-1H-indazol-6-yl)spiro[cyclopropane-1,3′-indolin]-2′-one hydrochloride], the 50% growth inhibitory concentration (GI50) in assay [1] (setting [7]) is 100 to 1000 nM; in assay [3], under 100 nM; in assay [4] (setting [8]) it was 1000 to 10000 nM; in assay [5] it was 100 to 1000 nM; in assay [6] it was 100 to 1000 nM.

Take `COc1ccc2c(c1)[C@]1(C[C@H]1c1ccc3c(-c4cccc(CN5CCOCC5)c4)n[nH]c3c1)C(=O)N2` (relative stereo) [Example A136, (1R*,2S*)-5′-methoxy-2-(3-(3-(morpholinomethyl)phenyl)-1H-indazol-6-yl)spiro[cyclopropane-1,3′-indolin]-2′-one 2,2,2-trifluoroacetate]: the concentration for 50% growth inhibition (GI50) in assay [1] (setting [7]) was 1000 to 10000 nM; in assay [3] it was 1000 to 10000 nM; in assay [4] (setting [8]), over 10000 nM; in assay [5], 1000 to 10000 nM; in assay [6], over 10000 nM.

For `CN1C(=O)[C@@]2(C[C@H]2c2ccc3c(/C=C/c4ccc(N5CCNCC5)cc4)n[nH]c3c2)c2ccccc21` (relative stereo) [Example A89, (1R*,2S*)-(E)-1′-methyl-2-(3-(4-(piperazin-1-yl)styryl)-1H-indazol-6-yl)spiro[cyclopropane-1,3′-indolin]-2′-one 2,2,2-trifluoroacetate], the GI50 was 1000 to 10000 nM in assay [1] (setting [7]); under 100 nM in assay [3]; 1000 to 10000 nM in assay [4] (setting [8]); under 100 nM in assay [5]; 100 to 1000 nM in assay [6].

For the molecule `COc1ccc2c(c1)[C@]1(C[C@H]1c1ccc3c(/C=C/c4ccc(CN5CCCCC5)cc4)n[nH]c3c1)C(=O)N2` [Example A59, (1R,2S)-(E)-5′-methoxy-2-(3-(4-(piperidin-1-ylmethyl)styryl)-1H-indazol-6-yl)spiro[cyclopropane-1,3′-indolin]-2′-one 2,2,2-trifluoroacetate salt], the 50% growth inhibitory concentration (GI50) in assay [2] is over 10000 nM; in assay [4] (setting [8]), 1000 to 10000 nM.

On to `CN1CCc2cc(-c3n[nH]c4cc([C@@H]5C[C@@]56C(=O)Nc5ccccc56)ccc34)ccc2C1` [Example A76, (1R,2S)-2-(3-(2-methyl-1,2,3,4-tetrahydroisoquinolin-6-yl)-1H-indazol-6-yl)spiro[cyclopropane-1,3′-indolin]-2′-one 2,2,2-trifluoroacetate salt], for which the GI50 in assay [1] (setting [9]) lay in the range of 100 to 1000 nM; in assay [3], 100 to 1000 nM; in assay [4] (setting [10]), 1000 to 10000 nM; in assay [5], 100 to 1000 nM; in assay [6] it was 1000 to 10000 nM.

On to `COc1ccc2c(c1)[C@]1(C[C@H]1c1ccc3c(-c4ccc(OCCN5CCCCC5)cc4)n[nH]c3c1)C(=O)N2` [Example A67, (1R,2S)-5′-methoxy-2-(3-(4-(2-(piperidin-1-yl)ethoxy)phenyl)-1H-indazol-6-yl)spiro[cyclopropane-1,3′-indolin]-2′-one 2,2,2-trifluoroacetate salt], for which the GI50 in assay [1] (setting [7]), in assay [3], in assay [4] (setting [8]), in assay [5] and in assay [6] was under 100 nM each time.

As for `COc1ccc2c(c1)[C@]1(C[C@H]1c1ccc3c(-c4ccc(CN5CCOCC5)cc4)n[nH]c3c1)C(=O)N2` (relative stereo) [Example A139, (1R*,2S*)-5′-methoxy-2-(3-(4-(morpholinomethyl)phenyl)-1H-indazol-6-yl)spiro[cyclopropane-1,3′-indolin]-2′-one 2,2,2-trifluoroacetate], the 50% growth inhibitory concentration (GI50) lay within 100 to 1000 nM in assay [1] (setting [7]); 100 to 1000 nM in assay [3]; 1000 to 10000 nM in assay [4] (setting [8]); 100 to 1000 nM in assay [5]; 1000 to 10000 nM in assay [6].

Turning to `O=C1Nc2ccccc2[C@]12C[C@H]2c1ccc2cn[nH]c2c1` [Example A4, (1R,2S)-2-(1H-indazol-6-yl)spiro[cyclopropane-1,3′-indolin]-2′-one], the GI50 in assay [1] (setting [7]) is 1000 to 10000 nM; in assay [3], 1000 to 10000 nM; in assay [4] (setting [8]), 1000 to 10000 nM; in assay [5], over 10000 nM; in assay [6], 1000 to 10000 nM.

As to `COc1ccc2c(c1)[C@]1(C[C@H]1c1ccc3c(/C=C/c4ccc(N5CCOCC5)nc4)n[nH]c3c1)C(=O)N2` (relative stereo) [Example A213, (1R*,2S*)-5′-methoxy-2-(3-((E)-2-(6-morpholinopyridin-3-yl)vinyl)-1H-indazol-6-yl)spiro[cyclopropane-1,3′-indolin]-2′-one 2,2,2-trifluoroacetate], the GI50 in assay [1] (setting [9]) was 1000 to 10000 nM; in assay [3], under 100 nM; in assay [4] (setting [10]), over 10000 nM; in assay [5], under 100 nM; in assay [6], under 100 nM.

Regarding `O=C1Nc2ccccc2[C@]12C[C@H]2c1ccc2c(/C=C/c3cccnc3)n[nH]c2c1` [Example A29, (1R,2S)-2-(3-((E)-2-(pyridin-3-yl)vinyl)-1H-indazol-6-yl)spiro[cyclopropane-1,3′-indolin]-2′-one], the concentration for 50% growth inhibition (GI50) was in the range of 1000 to 10000 nM in assay [1] (setting [9]), 1000 to 10000 nM in assay [2], 1000 to 10000 nM in assay [4] (setting [10]) and 100 to 1000 nM in assay [5].

As for `COc1ccc2c(c1)[C@]1(C[C@H]1c1ccc3c(-c4ccc(N5CCC(O)CC5)cc4)n[nH]c3c1)C(=O)N2` (relative stereo) [Example A118, (1R*,2S*)-2-(3-(4-(4-hydroxypiperidin-1-yl)phenyl)-1H-indazol-6-yl)-5′-methoxyspiro[cyclopropane-1,3′-indolin]-2′-one 2,2,2-trifluoroacetate], the GI50 was 1000 to 10000 nM in assay [1] (setting [7]); 100 to 1000 nM in assay [3]; over 10000 nM in assay [4] (setting [8]); 1000 to 10000 nM in assay [5]; 1000 to 10000 nM in assay [6].

`COc1ccc2c(c1)[C@]1(C[C@H]1c1ccc3c(-c4ccc(CO)cc4)n[nH]c3c1)C(=O)N2` (relative stereo) [Example A45, (1R*,2S*)-2-(3-(4-(hydroxymethyl)phenyl)-1H-indazol-6-yl)-5′-methoxyspiro[cyclopropane-1,3′-indolin]-2′-one 2,2,2-trifluoroacetate]: the GI50 in assay [1] (setting [7]) was 1000 to 10000 nM; in assay [3], 100 to 1000 nM; in assay [4] (setting [8]), over 10000 nM; in assay [5], 100 to 1000 nM; in assay [6], 1000 to 10000 nM.
